The supplement of paper PMC9927326
MIC of clinical C. albicans isolates, CLSI broth microdilution (ranges and time not stated); higher = less susceptible. Call: susceptible or wild type [S] / resistant or non-wild type [R] by CLSI breakpoints or epidemiological cut-offs; intermediate and dose-dependent carry no call here (the paper groups them with resistant). '<=' and '>=' mark each drug's lowest and highest value, inferred; the source prints them plain. Isolates are numbered anew.

How the values were obtained:
Test in all cases: CLSI broth microdilution.
posaconazole = compound: CC[C@@H]([C@H](C)O)n1ncn(-c2ccc(N3CCN(c4ccc(OC[C@@H]5CO[C@@](Cn6cncn6)(c6ccc(F)cc6F)C5)cc4)CC3)cc2)c1=O [posaconazole]
caspofungin = compound: CC[C@H](C)C[C@H](C)CCCCCCCCC(=O)N[C@H]1C[C@@H](O)[C@@H](NCCN)NC(=O)[C@@H]2[C@@H](O)CCN2C(=O)[C@H]([C@H](O)CCN)NC(=O)[C@H]([C@H](O)[C@@H](O)c2ccc(O)cc2)NC(=O)[C@@H]2C[C@@H](O)CN2C(=O)[C@H]([C@@H](C)O)NC1=O [caspofungin]
amphotericin B = compound: C[C@@H]1[C@H](O)[C@@H](C)/C=C/C=C/C=C/C=C/C=C/C=C/C=C/[C@H](O[C@@H]2O[C@H](C)[C@@H](O)[C@H](N)[C@@H]2O)C[C@@H]2O[C@](O)(C[C@@H](O)C[C@@H](O)[C@H](O)CC[C@@H](O)C[C@@H](O)CC(=O)O[C@H]1C)C[C@H](O)[C@H]2C(=O)O [amphotericin B]
fluconazole = compound: OC(Cn1cncn1)(Cn1cncn1)c1ccc(F)cc1F [fluconazole]
flucytosine = compound: Nc1[nH]c(=O)ncc1F [flucytosine]
itraconazole = compound: CCC(C)n1ncn(-c2ccc(N3CCN(c4ccc(OCC5COC(Cn6cncn6)(c6ccc(Cl)cc6Cl)O5)cc4)CC3)cc2)c1=O [itraconazole]
voriconazole = compound: C[C@@H](c1ncncc1F)[C@](O)(Cn1cncn1)c1ccc(F)cc1F [voriconazole]
anidulafungin = compound: CCCCCOc1ccc(-c2ccc(-c3ccc(C(=O)N[C@H]4C[C@@H](O)[C@@H](O)NC(=O)[C@@H]5[C@@H](O)[C@@H](C)CN5C(=O)[C@H]([C@@H](C)O)NC(=O)[C@H]([C@H](O)[C@@H](O)c5ccc(O)cc5)NC(=O)[C@@H]5C[C@@H](O)CN5C(=O)[C@H]([C@@H](C)O)NC4=O)cc3)cc2)cc1 [anidulafungin]
micafungin = compound: CCCCCOc1ccc(-c2cc(-c3ccc(C(=O)N[C@H]4C[C@@H](O)[C@@H](O)NC(=O)[C@@H]5[C@@H](O)[C@@H](C)CN5C(=O)[C@H]([C@H](O)CC(N)=O)NC(=O)[C@H]([C@H](O)[C@@H](O)c5ccc(O)c(OS(=O)(=O)O)c5)NC(=O)[C@@H]5C[C@@H](O)CN5C(=O)[C@H]([C@@H](C)O)NC4=O)cc3)no2)cc1 [micafungin]

| Test System | MIC (posaconazole) | MIC (caspofungin) | MIC (amphotericin B) | MIC (fluconazole) | MIC (flucytosine) | MIC (itraconazole) | MIC (voriconazole) | MIC (anidulafungin) | MIC (micafungin) |
| --- | --- | --- | --- | --- | --- | --- | --- | --- | --- |
| Candida albicans isolate 117 (Erg11p: WT, Fur1p: WT, Tac1p: WT) | 0.015 mg/L [S] | 0.12 mg/L [S] | 0.5 mg/L [S] | 0.25 mg/L [S] | ≤ 0.06 mg/L [S] | 0.03 mg/L [S] | ≤ 0.008 mg/L [S] | 0.12 mg/L [S] | ≤ 0.008 mg/L [S] |
| Candida albicans isolate 118 (Erg11p: Y132H,T123I, Fur1p: R101C, Tac1p: WT) | 0.03 mg/L [S] | 0.015 mg/L [S] | 0.5 mg/L [S] | 2 mg/L [S] | 0.12 mg/L [S] | 0.06 mg/L [S] | 0.25 µg/mL | ≤ 0.015 mg/L [S] | ≤ 0.008 mg/L [S] |
| Candida albicans isolate 119 (Erg11p: E266D, Fur1p: WT, Tac1p: I558V,A377V,F189S,N174D,M170I,K87N) | 0.015 mg/L [S] | 0.03 mg/L [S] | 0.5 mg/L [S] | 0.5 mg/L [S] | ≤ 0.06 mg/L [S] | 0.03 mg/L [S] | ≤ 0.008 mg/L [S] | 0.03 mg/L [S] | 0.015 mg/L [S] |
| Candida albicans isolate 120 (Erg11p: D153E,Y132H, Fur1p: WT, Tac1p: N896S) | ≥ 8 mg/L [R] | 0.03 mg/L [S] | 0.5 mg/L [S] | ≥ 256 mg/L [R] | 0.12 mg/L [S] | ≥ 16 mg/L [R] | ≥ 8 mg/L [R] | 0.12 mg/L [S] | ≤ 0.008 mg/L [S] |
| Candida albicans isolate 121 (Erg11p: E266D, Fur1p: WT, Tac1p: N896S,I558V,A377V,F189S,N174D,M170I,K87N) | 0.03 mg/L [S] | 0.03 mg/L [S] | 0.5 mg/L [S] | 0.5 mg/L [S] | ≤ 0.06 mg/L [S] | 0.03 mg/L [S] | 0.015 mg/L [S] | ≤ 0.015 mg/L [S] | 0.015 mg/L [S] |
| Candida albicans isolate 122 (Erg11p: WT, Fur1p: R101C, Tac1p: WT) | 0.015 mg/L [S] | 0.015 mg/L [S] | 0.5 mg/L [S] | 0.5 mg/L [S] | 0.5 mg/L [S] | 0.06 mg/L [S] | ≤ 0.008 mg/L [S] | 0.03 mg/L [S] | ≤ 0.008 mg/L [S] |
| Candida albicans isolate 123 (Erg11p: WT, Fur1p: WT, Tac1p: I558V,A377V,F189S,N174D,M170I,K87N) | 0.015 mg/L [S] | 0.03 mg/L [S] | 0.25 mg/L [S] | 0.25 mg/L [S] | ≤ 0.06 mg/L [S] | ≤ 0.015 mg/L [S] | ≤ 0.008 mg/L [S] | 0.06 mg/L [S] | 0.015 mg/L [S] |
| Candida albicans isolate 124 (Erg11p: WT, Fur1p: WT, Tac1p: N896S) | 0.015 mg/L [S] | 0.03 mg/L [S] | 0.25 mg/L [S] | 0.25 mg/L [S] | 0.12 mg/L [S] | 0.03 mg/L [S] | ≤ 0.008 mg/L [S] | ≤ 0.015 mg/L [S] | ≤ 0.008 mg/L [S] |
| Candida albicans isolate 125 (Erg11p: E266D, Fur1p: WT, Tac1p: I558V,A377V,F189S,N174D,M170I,K87N) | 0.03 mg/L [S] | 0.03 mg/L [S] | 0.5 mg/L [S] | 0.5 mg/L [S] | ≤ 0.06 mg/L [S] | 0.06 mg/L [S] | ≤ 0.008 mg/L [S] | ≤ 0.015 mg/L [S] | 0.03 mg/L [S] |
| Candida albicans isolate 126 (Erg11p: V488I,E266D, Fur1p: WT, Tac1p: N896S,M170V,S108N) | 0.015 mg/L [S] | 0.06 mg/L [S] | 0.5 mg/L [S] | 0.25 mg/L [S] | ≤ 0.06 mg/L [S] | ≤ 0.015 mg/L [S] | ≤ 0.008 mg/L [S] | ≤ 0.015 mg/L [S] | 0.015 mg/L [S] |
| Candida albicans isolate 127 (Erg11p: V488I,E266D, Fur1p: WT, Tac1p: WT) | 0.015 mg/L [S] | 0.03 mg/L [S] | 0.5 mg/L [S] | 0.5 mg/L [S] | ≤ 0.06 mg/L [S] | 0.03 mg/L [S] | ≤ 0.008 mg/L [S] | 0.03 mg/L [S] | ≤ 0.008 mg/L [S] |
| Candida albicans isolate 128 (Erg11p: E266D, Fur1p: WT, Tac1p: T885K,I558V,A430V,A377V,F189S,N174D,M170I,M170V,K87N) | 0.015 mg/L [S] | 0.03 mg/L [S] | 0.25 mg/L [S] | ≤ 0.12 mg/L [S] | ≤ 0.06 mg/L [S] | 0.03 mg/L [S] | ≤ 0.008 mg/L [S] | 0.12 mg/L [S] | 0.015 mg/L [S] |
| Candida albicans isolate 129 (Erg11p: V437I,D153E, Fur1p: WT, Tac1p: N896S,L695F,I558V,E192V,F189S,L131I) | 0.015 mg/L [S] | 0.06 mg/L [S] | 0.5 mg/L [S] | 0.25 mg/L [S] | ≤ 0.06 mg/L [S] | 0.03 mg/L [S] | ≤ 0.008 mg/L [S] | 0.12 mg/L [S] | 0.015 mg/L [S] |
| Candida albicans isolate 130 (Erg11p: E266D, Fur1p: WT, Tac1p: N896S,I558V,A377V,M170V) | 0.015 mg/L [S] | 0.03 mg/L [S] | 0.5 mg/L [S] | 0.5 mg/L [S] | ≤ 0.06 mg/L [S] | 0.03 mg/L [S] | ≤ 0.008 mg/L [S] | 0.06 mg/L [S] | ≤ 0.008 mg/L [S] |
| Candida albicans isolate 131 (Erg11p: Y257H,A114S, Fur1p: R101C, Tac1p: A736V) | 0.5 mg/L [R] | 0.015 mg/L [S] | 0.5 mg/L [S] | 16 mg/L [R] | 0.25 mg/L [S] | 0.5 mg/L [R] | 1 mg/L [R] | ≤ 0.015 mg/L [S] | 0.015 mg/L [S] |
| Candida albicans isolate 132 (Erg11p: WT, Fur1p: WT, Tac1p: WT) | 0.015 mg/L [S] | 0.03 mg/L [S] | 0.25 mg/L [S] | 0.5 mg/L [S] | ≤ 0.06 mg/L [S] | 0.03 mg/L [S] | ≤ 0.008 mg/L [S] | 0.03 mg/L [S] | 0.015 mg/L [S] |
| Candida albicans isolate 133 (Erg11p: Y132H,T123I, Fur1p: R101C, Tac1p: WT) | 0.06 mg/L [S] | 0.015 mg/L [S] | 0.5 mg/L [S] | 4 µg/mL | 0.12 mg/L [S] | 0.12 mg/L [S] | 0.5 µg/mL | ≤ 0.015 mg/L [S] | 0.015 mg/L [S] |
